In patent US9605027B2, “Polypeptides that bound to IL-23 receptor and inhibit binding of IL-23 and cell signaling thereof” (Medical Diagnostic Laboratories, LLC, priority 2011, dated 2017):
“Also recorded” adds a separate entry of the source. At least one peptide structure holds a part that was inferred or is arguable (an end, a ring closure or a residue). Some compounds share one wording; it may come from a single statement. Some of these results come from one statement about several compounds together. Bridge positions count the residues as written; N and C are the ends. Ends that are not written are not given here. Peptide text beside a SMILES is read from it.

Each molecule was assayed against T1, Recombinant human IL-23R-Fc (Homo sapiens, UniProt Q5VWK5) (assay: Competitive ELISA, IL-23 binding to IL-23R). Conditions: 50 μM polypeptide, 30 ng/ml IL-23.
T1 construct: has the protein portion between the 24 amino acid residue to 353 amino acid residue; purchased R&D Systems 1400-IR-050
T1 sequence (Q5VWK5 24-353): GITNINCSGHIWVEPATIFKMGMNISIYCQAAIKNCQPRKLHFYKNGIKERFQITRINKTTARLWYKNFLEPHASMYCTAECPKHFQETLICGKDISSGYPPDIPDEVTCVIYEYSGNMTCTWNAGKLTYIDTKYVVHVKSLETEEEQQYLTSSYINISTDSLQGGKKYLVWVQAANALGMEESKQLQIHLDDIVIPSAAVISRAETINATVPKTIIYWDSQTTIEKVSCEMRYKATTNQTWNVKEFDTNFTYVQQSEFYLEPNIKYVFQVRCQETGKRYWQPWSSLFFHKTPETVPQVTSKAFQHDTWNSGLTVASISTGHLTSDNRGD
Method: The novel polypeptides were tested for their ability to inhibit IL-23 using a Competitive ELISA. In such an assay, IL-23R/Fc fusion protein was immobilized on a solid support. In this instance, the solid support was a 96-well plate, but the support may be any support that is typically used for an ELISA. The novel polypeptide and IL-23 were allowed to compete for binding to the immobilized IL-23R/Fc fusion protein. IL-23 that bound to IL-23R-Fc was detected using biotinylated anti-p40 antibody. The bound anti-p40 antibody was detected using streptavidin-horseradish peroxidase (HRP) and a tetramethylbenzidine (TMB) substrate was added to measure peroxidase activity. The color was measured at optical density (OD) 450nm. The color intensity was directly proportional to the amount of the bound IL-23 protein. […] (See, FIG. 16.)
(§1) FIG. 12 is a schematic depiction of the Competitive ELISA. Recombinant human IL-23R-Fc (2 μg/ml) was coated onto microtiter plates as a capture reagent. IL-23 and polypeptides were added to compete for binding to the immobilized IL-23R-Fc. IL-23 that bound to IL-23R-Fc was detected using biotinylated anti-p40 antibody (1:250). The bound anti-p40 antibody was detected using streptavidin-horseradish peroxidase (HRP) (1:500) and 100 μl/well of a tetramethylbenzidine (TMB) substrate was added to measure peroxidase activity. The color was measured at optical density (OD) 450nm. (See, FIG. 12). The color intensity was directly proportional to the amount of the bound IL-23 protein.
as §1, with “Recombinant” for “FIG. 12 is a schematic depiction of the Competitive ELISA. Recombinant”, “IL-23R-Fc. 50 μg human IL-23 (Cat. No. HZ-1048) (Humanzyme, Chicago, Ill.) in the presence or absence of 100 μM peptides was added to the well and incubated at 4° C. overnight.” for “IL-23R-Fc.”, “450nm.” for “450nm. (See, FIG. 12).”

Row | Molecule | inhibitory activity in Competitive ELISA in relation to polypeptide no. 1
1 | DDWMQYWRQQVR [compound 27] | significant and better inhibitory activity compared to peptide number 1; also recorded: inhibited IL-23 binding more than polypeptide no. 1
2 | AMTWEDWWLYGR [compound 23] | significant and better inhibitory activity compared to peptide number 1; also recorded: inhibited IL-23 binding more than polypeptide no. 1; also recorded: dramatic inhibitory effect

Same assay, conditions: 50 μg of human IL-23 and 50 μM peptide; IL-23 alone greater than 0.5

Row | Molecule | Optical density at 450 nm in competitive ELISA
3 | SGASFVQYWVQR [1.1] | at least 0.4
4 | SGASFVQYFVQR [1.3] | at least 0.4
5 | SGASWVQYFVQR [1.2] | at least 0.4

Same assay, conditions: procedure of Example 6, compared with parent polypeptide

Row | Molecule | inhibition of IL-23 binding to its receptor by modified polypeptides, Competitive ELISA
6 | NWATYHQLRWQT [9.4] | did not demonstrate any inhibitory effect
7 | SGASWWQYVVQR [1.7] | did not demonstrate any inhibitory effect
8 | SGASWLQYWVQR [1.15] | did not abolish the inhibitory activity
9 | NC(=O)CC[C@@H]1NC(=O)[C@H](Cc2c[nH]c3ccccc23)NC(=O)[C@@H](N)CSSC[C@@H](C(=O)O)NC(=O)[C@H](Cc2c[nH]c3ccccc23)NC(=O)[C@H](Cc2ccc(O)cc2)NC(=O)[C@H](CC(=O)O)NC1=O [23.22] (H-CWQDYWC-OH; disulfide 1-7; N-terminus and C-terminus assumed) | greatly reduced the ability
10 | SGASFVQYWVQR [1.1] | minimal inhibition
11 | AMTWEDYWLYGR [23.12] | at least as effective
12 | WGASSVQYRVQW [1.12] | did not demonstrate any inhibitory effect
13 | WQDYW [23.18] | eliminated the ability; also recorded: no inhibition
14 | VGAAMTWEDWWLYGRGAL [23.3] | bind to IL-23R and inhibit IL-23; also recorded: did not diminish the ability; also recorded: equal, if not stronger, inhibition
15 | NWWTYAQLRHQT [9.1] | did not demonstrate any inhibitory effect
16 | SGAWSVQYVWQR [1.10] | did not demonstrate any inhibitory effect
17 | SGASWVQWYVQR [1.9] | did not demonstrate any inhibitory effect
18 | CC(C)C[C@@H]1NC(=O)[C@H](Cc2c[nH]c3ccccc23)NC(=O)[C@H](Cc2ccc(O)cc2)NC(=O)[C@H](CC(=O)O)NC(=O)[C@H](CCC(N)=O)NC(=O)[C@H](Cc2c[nH]c3ccccc23)NC(=O)[C@H]([C@@H](C)O)NC(=O)[C@@H](N)CSSC[C@@H](C(=O)O)NC1=O [23.21] (H-CTWQDYWLC-OH; disulfide 1-9; N-terminus and C-terminus assumed) | greatly reduced the ability
19 | AMTWENFWLYGR [23.13] | at least as effective
20 | MTWEDWWLY [23.1] | bind to IL-23R and inhibit IL-23; also recorded: did eliminate the ability
21 | MTWQDYWLY [23.16] | eliminated the ability; also recorded: no inhibition
22 | GASGASWVQYWVQRGA [1.5] | bind to IL-23R and inhibit IL-23; also recorded: did not diminish the ability; also recorded: equal, if not stronger, inhibition
23 | NWATYQQLRHWT [9.5] | did not demonstrate any inhibitory effect
24 | SGASWVQYWYEE [1.25] | did not abrogate the ability
25 | SGASWVQYWLNK [1.23] | equal inhibition
26 | VGASGASWVQYWVQRGAL [1.6] | bind to IL-23R and inhibit IL-23; also recorded: did not diminish the ability; also recorded: equal, if not stronger, inhibition
27 | SGASWVNYWVQR [1.16] | did not abolish the inhibitory activity

Row | Molecule | inhibition of IL-23 binding to its receptor by modified polypeptides, Competitive ELISA
28 | TWQDYWL [23.17] | eliminated the ability; also recorded: no inhibition
29 | GAAMTWEDWWLYGRGA [23.2] | bind to IL-23R and inhibit IL-23; also recorded: did not diminish the ability; also recorded: equal, if not stronger, inhibition
30 | NWATYLQWRHQT [9.3] | did not demonstrate any inhibitory effect
31 | AMTWEEWWLYGR [23.5] | effective at inhibiting IL-23 binding to its receptor
32 | AMTWKKWWLYGR [23.11] | effective at inhibiting IL-23 binding to its receptor
33 | SGASWVQYWWQR [1.19] | did not abrogate the ability
34 | CSCC[C@@H]1NC(=O)[C@@H](N)CSSC[C@@H](C(=O)O)NC(=O)[C@H](Cc2ccc(O)cc2)NC(=O)[C@H](CC(C)C)NC(=O)[C@H](Cc2c[nH]c3ccccc23)NC(=O)[C@H](Cc2ccc(O)cc2)NC(=O)[C@H](CC(=O)O)NC(=O)[C@H](CCC(N)=O)NC(=O)[C@H](Cc2c[nH]c3ccccc23)NC(=O)[C@H]([C@@H](C)O)NC1=O [23.20] (H-CMTWQDYWLYC-OH; disulfide 1-11; N-terminus and C-terminus assumed) | slightly decreases the ability
35 | SGASWVWYQVQR [1.8] | did not demonstrate any inhibitory effect
36 | NWAWYTQLRHQT [9.2] | did not demonstrate any inhibitory effect
37 | AMTWKDWWLYGR [23.10] | effective at inhibiting IL-23 binding to its receptor
38 | AMTWQDWWLYGR [23.6] | effective at inhibiting IL-23 binding to its receptor
39 | AMTWQNWWLYGR [23.8] | effective at inhibiting IL-23 binding to its receptor
40 | AMTWENWWLYGR [23.7] | effective at inhibiting IL-23 binding to its receptor
41 | SGASWLNFWVQR [1.14] | did not abrogate the ability
42 | TAGTWVQYWVQR [1.22] | equal inhibition
43 | AMTWEKWWLYGR [23.9] | effective at inhibiting IL-23 binding to its receptor
44 | AMTWDDWWLYGR [23.4] | effective at inhibiting IL-23 binding to its receptor
45 | ASSAWVQYWVQR [1.24] | did not abrogate the ability
46 | AMTWENAWLYGR [23.14] | still inhibits IL-23 binding to its receptor
47 | SGASWNLAWVQR [1.13] | did not abrogate the ability
48 | SGASFVQYFVQR [1.3] | minimal inhibition
49 | SGASWVQYFVQR [1.2] | minimal inhibition
